Results on 17 molecules are retold here after US7592316B2, “Peptides as NS3-serine protease inhibitors of hepatitis C virus” (Schering Corporation, priority 2000, dated 2009).

Several values for one entry are separate records, joined by “and”; a condition that tells them apart may be missing. Equal entries are not always repeated. *1 amine or outer side, *2 acyl side, *3 side chain or, on linkers, in order; H or OH if unused. Where a SMILES comes first, the peptide text is derived from it. [ ]: non-standard residue; d: D form. The star is where a group is joined. ξ: configuration not given here. ξPhg(3,5-(OMe)2) = COc1cc(OC)cc(C(N)C(=O)O)c1; ξLeu(ψCOCO) = CC(C)CC(N[*:1])C(=O)C(=O)[*:2]; ξPhg(2,3-(OMe)2) = COc1cccc(C(N)C(=O)O)c1OC; Benzoyl(2-CF3) = O=C(c1ccccc1C(F)(F)F)*; Benzoyl(2-COOH) = O=C(O)c1ccccc1C(=O)*; Benzoyl(2,6-F2) = O=C(c1c(F)cccc1F)*; ξPhg(3-OMe) = COc1cccc(C(N)C(=O)O)c1; ξPhg(3-Cl) = NC(C(=O)O)c1cccc(Cl)c1; X4 = CCCCC(N[*:1])C(=O)C(=O)[*:2]; ξPhg(3-F) = NC(C(=O)O)c1cccc(F)c1; Hyp = O=C(O)[C@@H]1C[C@@H](O)CN1; X2 = CCCC(N[*:1])C(=O)C(=O)[*:2]; Aad = N[C@@H](CCCC(=O)O)C(=O)O; Chg = N[C@H](C(=O)O)C1CCCCC1; Phg = N[C@H](C(=O)O)c1ccccc1; ξChg = NC(C(=O)O)C1CCCCC1; ξPhg = NC(C(=O)O)c1ccccc1; Bn = c1ccc(C*)cc1; OtBu = CC(C)(C)O*; tBu = CC(C)(C)* Where only a bound is given, the exact number is not on record here.

One assay concerns the target HCV NS3/NS4A protease (strain 1a) (Hepatitis C virus genotype 1a, UniProt P27958). The experiment in a line: biochemical. To be noted: Compounds prepared by Solid Phase Synthesis, Table 3; read-out: Ki* CLASS.
The Ki is the dissociation constant of the complex between target and ligand, obtained from inhibition or displacement. For the molecule `CCCC(NC(=O)[C@@H]1C[C@@H](OC(C)(C)C)CN1C(=O)[C@@H](NC(=O)c1c(F)cccc1F)C1CCCCC1)C(=O)C(=O)NCC(=O)NC(C(N)=O)c1cccc(F)c1` (some centres unmarked) ({Benzoyl(2,6-F2)}-[Chg][Hyp](tBu)[X2]G[ξPhg(3-F)]-NH2), the Ki is 101 to 1000 nM. On the same count and under the same terms, in the case of `CCCC(NC(=O)[C@@H]1C[C@@H](OC(C)(C)C)CN1C(=O)[C@@H](NC(=O)c1c(F)cccc1F)C1CCCCC1)C(=O)C(=O)NCC(=O)NC(C(N)=O)c1cccc(OC)c1` (some centres unmarked) ({Benzoyl(2,6-F2)}-[Chg][Hyp](tBu)[X2]G[ξPhg(3-OMe)]-NH2) it was 101 to 1000 nM.

Regarding `CC(C)CC(NC(=O)[C@@H]1C[C@@H](OC(C)(C)C)CN1C(=O)[C@@H](NC(=O)c1c(F)cccc1F)C1CCCCC1)C(=O)C(=O)NCC(=O)N[C@H](C(N)=O)c1ccccc1` (some centres unmarked) ({Benzoyl(2,6-F2)}-[Chg][Hyp](tBu)[ξLeu(ψCOCO)]G[Phg]-NH2), the Ki is above 1000 nM. Regarding `CCCC(NC(=O)[C@@H]1C[C@@H](O)CN1C(=O)[C@@H](NC(=O)c1c(F)cccc1F)C1CCCCC1)C(=O)C(=O)NCC(=O)NC(C(N)=O)c1cc(OC)cc(OC)c1` (some centres unmarked) ({Benzoyl(2,6-F2)}-[Chg][Hyp][X2]G[ξPhg(3,5-(OMe)2)]-NH2), the Ki was 101 to 1000 nM. Still for that read-out and setting: the result for `CCCC(NC(=O)[C@@H]1C[C@@H](OCc2ccccc2)CN1C(=O)C(NC(=O)c1ccccc1C(F)(F)F)C1CCCCC1)C(=O)C(=O)NCC(=O)NC(C(N)=O)c1ccccc1` (some centres unmarked) ({Benzoyl(2-CF3)}-[ξChg][Hyp](Bn)[X2]G[ξPhg]-NH2) reads 101 to 1000 nM; that for `CCCC(NC(=O)[C@@H]1C[C@@H](OCc2ccccc2)CN1C(=O)C(NC(=O)c1ccccc1C(F)(F)F)C1CCCCC1)C(=O)C(=O)NCC(=O)NC(C(=O)O)c1ccccc1` (some centres unmarked) ({Benzoyl(2-CF3)}-[ξChg][Hyp](Bn)[X2]G[ξPhg]-OH), 101 to 1000 nM; that for `CCCCC(NC(=O)[C@@H]1C[C@@H](OCc2ccccc2)CN1C(=O)C(NC(=O)c1ccccc1C(F)(F)F)C1CCCCC1)C(=O)C(=O)NCC(=O)NC(C(N)=O)c1ccccc1` (some centres unmarked) ({Benzoyl(2-CF3)}-[ξChg][Hyp](Bn)[X4]G[ξPhg]-NH2), 101 to 1000 nM. Turning to `CCCC(NC(=O)[C@@H]1C[C@@H](OCc2ccccc2)CN1C(=O)[C@H](CCCC(=O)OC(C)(C)C)NC(=O)c1ccccc1C(=O)O)C(=O)C(=O)NCC(=O)N[C@H](C(N)=O)c1ccccc1` (some centres unmarked) ({Benzoyl(2-COOH)}-[Aad](OtBu)[Hyp](Bn)[X2]G[Phg]-NH2), the inhibition constant Ki was above 1000 nM. For `CCCC(NC(=O)[C@@H]1C[C@@H](OCc2ccccc2)CN1C(=O)[C@H](CCCC(=O)O)NC(=O)c1ccccc1C(=O)O)C(=O)C(=O)NCC(=O)N[C@H](C(N)=O)c1ccccc1` (some centres unmarked) ({Benzoyl(2-COOH)}-[Aad][Hyp](Bn)[X2]G[Phg]-NH2), the Ki fell in the range of 101 to 1000 nM.

Consider `CCCC(NC(=O)[C@@H]1C[C@@H](OC(C)(C)C)CN1C(=O)[C@@H](NC(=O)c1ccccc1C(=O)O)C1CCCCC1)C(=O)C(=O)NCC(=O)N[C@H](C(N)=O)c1ccccc1` (some centres unmarked) ({Benzoyl(2-COOH)}-[Chg][Hyp](tBu)[X2]G[Phg]-NH2), for which the Ki lay in the range of 1 to 100 nM. In the case of `CCCC(NC(=O)[C@@H]1C[C@@H](OC(C)(C)C)CN1C(=O)[C@@H](NC(=O)c1ccccc1C(=O)O)C1CCCCC1)C(=O)C(=O)NCC(=O)N[C@H](CC(=O)OC(C)(C)C)C(N)=O` (some centres unmarked) ({Benzoyl(2-COOH)}-[Chg][Hyp](tBu)[X2]G[dD](OtBu)-NH2), the inhibition constant (Ki) is above 1000 nM. With `CCCC(NC(=O)[C@@H]1C[C@@H](OC(C)(C)C)CN1C(=O)[C@@H](NC(=O)c1ccccc1C(=O)O)C1CCCCC1)C(=O)C(=O)NCC(=O)NC(C(N)=O)c1cccc(OC)c1OC` (some centres unmarked) ({Benzoyl(2-COOH)}-[Chg][Hyp](tBu)[X2]G[ξPhg(2,3-(OMe)2)]-NH2), the Ki is 101 to 1000 nM. On to `CCCC(NC(=O)[C@@H]1C[C@@H](OC(C)(C)C)CN1C(=O)[C@@H](NC(=O)c1ccccc1C(=O)O)C1CCCCC1)C(=O)C(=O)NCC(=O)NC(C(N)=O)c1cc(OC)cc(OC)c1` (some centres unmarked) ({Benzoyl(2-COOH)}-[Chg][Hyp](tBu)[X2]G[ξPhg(3,5-(OMe)2)]-NH2), for which the Ki is 101 to 1000 nM. On the same count and under the same terms, in the case of `CCCC(NC(=O)[C@@H]1C[C@@H](OC(C)(C)C)CN1C(=O)[C@@H](NC(=O)c1ccccc1C(=O)O)C1CCCCC1)C(=O)C(=O)NCC(=O)NC(C(N)=O)c1cccc(Cl)c1` (some centres unmarked) ({Benzoyl(2-COOH)}-[Chg][Hyp](tBu)[X2]G[ξPhg(3-Cl)]-NH2) it was 101 to 1000 nM. On to `CCCC(NC(=O)[C@@H]1C[C@@H](OC(C)(C)C)CN1C(=O)[C@@H](NC(=O)c1ccccc1C(=O)O)C1CCCCC1)C(=O)C(=O)NCC(=O)NC(C(N)=O)c1cccc(F)c1` (some centres unmarked) ({Benzoyl(2-COOH)}-[Chg][Hyp](tBu)[X2]G[ξPhg(3-F)]-NH2), for which the Ki was 101 to 1000 nM.

Staying with this assay, now noted: Table 4; HCV NS3/NS4A protease, spectrophotometric assay, 30° C., pH 6.5; read-out: Ki* Range.
With `CCC[C@H](NC(=O)[C@@H]1[C@H]2C[C@H]2CN1C(=O)[C@@H](NC(=O)OCC(C)C)C1CCCCC1)C(=O)C(=O)NCC(=O)NC(C(=O)N(C)C)c1ccccc1` (stereo in doubt), the Ki was in the range of 1 to 100 nM. Consider `CCCC(NC(=O)C1C[C@@H](NC(=O)Nc2ccc(Cl)cc2)CN1C(=O)[C@@H](NC(=O)OCC(C)C)C1CCCCC1)C(=O)C(=O)NCC(=O)N[C@H](C(N)=O)c1ccccc1` (stereo in doubt), for which the inhibitory constant (Ki) is 101 to 1000 nM and > 1000 nM.
